Peptide text beside a SMILES is read from it. * marks the point of attachment. Cbz = O=C(OCc1ccccc1)*; CH2Cl = ClC*
Columns and labels:
C57BL6/J mice [1] = experiment: Tail bleeding time in anesthetized mice; assay type: in vivo, mouse
Protocol: (§1) To determine if neutrophils participated in hemostasis in vivo standardized bleeding time in mice was examined after manipulating the number of circulating neutrophils. Briefly, C57BL6/J wild-type mice were injected intraperitoneally with anti-neutrophil antibody (Gr-1, 0.25 mg) or isotype control. Two days later mice were anesthetized with ketamine (80 mg/kg)/xylazine (13 mg/kg) and tail bleeding was performed by amputating a 3 mm section of the distal tail and immersing it in 37° C. PBS. The time to visual cessation of bleeding was recorded. At the end of each experiment, blood was obtained by retro-orbital puncture and complete blood counts determined by automated cell counter (HemaVet).
(§2) Briefly, C57BL6/J mice were treated with a single intraperitoneal injection of CYP (50 mg/kg or control vehicle) followed by daily subcutaneous injection of G-CSF (1 μg or control vehicle) for 3 days. Three days after CYP injection, tail bleeding time was assessed in anesthetized mice (ketamine 100 mg/kg intramuscular injection). Leukocyte counts were determined by automated cell counting and manual differential.
(§3) Mice were treated for 3 consecutive days by SQ injection of vehicle or GCSF (1 μg). […] In each experimental series, bleeding time was determined 30 minutes after IV injection after amputating the distal 3 mm section of tail.

C57BL6/J mice [2] = experiment: Ferric chloride mesenteric microvascular injury, time to first thrombus by intravital fluorescence microscopy; assay type: in vivo, mouse
Protocol: We sought to determine the in vivo effect of exogenous IL-6 on thrombus formation. Microvascular thrombus formation was assessed using intravital fluorescence microscopy as previously described^21 with modification. Briefly, C57BL6/J mice were treated with IL-6 (100 ng/100 μl) or vehicle by intramuscular injection on two consecutive days. Two days after the first injection, mice were anesthetized with ketamine/xylazine and injected intravenously with rhodamine-6-G (50 μl of 0.05% solution) to label circulating leukocytes^22. Mesentery was exteriorized through a midline abdominal incision, and arterioles (60-80 μm) and venules (120-150 μm) were visualized using an inverted fluorescence microscope (Nikon). Endothelial damage was induced by topical application of ferric chloride (250 or 500 μM) and images of leukocyte adherence to damaged endothelium and incorporation into thrombi were recorded with a digital camera (Retiga). Time to formation of first thrombus, defined as a thrombus >10 μm in diameter, was determined from digital images. […]
C57BL6/J mice were anesthetized with ketamine/xylazine and injected intravenously with an inhibitor of cathepsin G, Z-Gly-Leu-Phe-CMK (50 μl of 4 mM solution to achieve ˜100 μM in vivo), or vehicle. […] Time to first thrombus formation was determined from digital images obtained using intravital fluorescence microscopy as described above.

[3] = test system: platelet aggregation in platelet rich plasma with neutrophils (PMN); experiment: TRAP-induced impedance aggregometry of platelet rich plasma reconstituted with cultured neutrophils; conditions: for TRAP-induced platelet aggregation in presence of cytokine-treated neutrophils: neutrophils cultured 24 hours with cytokine 10 ng/ml, compared with PRP alone or vehicle-treated neutrophils, 15 μM TRAP
platelet aggregation = experiment: Arachidonic acid-induced platelet aggregation (preliminary experiments); assay type: cell-based; conditions: 30 μM aspirin
[4] = test system: platelet aggregation in platelet rich plasma with lymphocytes; experiment: Impedance aggregometry of platelet rich plasma reconstituted with lymphocytes; assay type: cell-based, human; conditions: lymphocytes cultured 24 hours with IL-6 10 ng/ml
From the text: To gain perspective on the specificity of leukocyte subtype for enhancement of platelet activation, the effect of lymphocytes on platelet aggregation was examined in vitro. […] In the presence of lymphocytes, diminished platelet aggregation in response to collagen was observed and IL-6 had no impact.

cathepsin G = experiment: Neutrophil expression and release of cathepsin G by Western blotting; assay type: cell-based, human
Protocol: Neutrophil expression and release of cathepsin G in the absence and presence of IL-6 pre-treatment was examined. Briefly, neutrophils were isolated by histopaque density centrifugation and cultured in the absence or presence of IL-6 for 24 hours as described above. Neutrophil expression of cathepsin G was determined from lysates of IL-6-treated and vehicle-treated PMNs as follows: Cultured cells were washed, resuspended in lysis buffer (0.1% SDS, 150 mM NaCl, 50 mM Tris-HCl, 2 mM EDTA, 10 μg/ml aprotinin, 10 μg/ml leupeptin, 1 mM PMSF, 1 mM Na3VO4), and proteins separated by SDS-PAGE (10 μg protein/lane on 10% polyacrylamide gel). Proteins were transferred to nitrocellulose membranes and probed with goat-anti-human cathepsin G antibody (Santa Cruz Biotechnology) followed by HRP-conjugated rabbit anti-goat secondary antibody (Santa Cruz Biotechnology). Proteins were visualized by enhanced chemiluminescence and bands quantified by densitometry. Neutrophil release of cathepsin G was determined by Western blotting supernatants obtained from TRAP-stimulated aggregation samples of PRP alone, PRP reconstituted with vehicle-treated PMN, and PRP reconstituted with IL-6-treated PMN.

[5] = test system: circulating neutrophils, monocytes, lymphocytes; experiment: Blood cell counts in treated mice; assay type: in vivo, mouse
Protocol: as §1, §2, §3

[6] = Example 11, FIG. 13, 30 minutes after IV injection, aspirin 50 μl of 1000 μM, C36H33N2O6P 50 μl of 20 μM
[7] = Example 6, FIG. 8, 20 min incubation, Z-Gly-Leu-Phe-CMK 100 μM, aspirin 30 μM

## CN(C(=O)c1cc2ccccc2cc1C(=O)C(c1cccc2ccccc12)P(=O)(O)O)C1CCN(C(=O)c2ccccc2)CC1 (stereo not shown) [C36H33N2O6P]
C57BL6/J mice [1]; [6]
  tail bleeding time, inhibitor in mice given vehicle for GCSF: prolonged bleeding time

## CC(C)C[C@H](NC(=O)CNC(=O)OCc1ccccc1)C(=O)N[C@@H](Cc1ccccc1)C(=O)CCl [Z-Gly-Leu-Phe-CMK, Z-Gly-Leu-Phe-chloromethyl ketone] (Cbz-Gly-Leu-Phe-CH2Cl)
C57BL6/J mice [2]; Z-Gly-Leu-Phe-CMK 50 μl of 4 mM solution intravenously, 500 μM ferric chloride
  thrombus formation in vivo (time to first thrombus): diminishes capacity for thrombus formation in vivo
[3]; [7]
  effect of inhibitor on TRAP-induced aggregation in presence of IL-6-treated neutrophils: prevented IL-6-treated neutrophils from augmenting aggregation compared to vehicle-treated neutrophils
  effect of inhibitor on TRAP-induced aggregation in presence of vehicle-treated neutrophils: attenuated compared but remained greater than in PRP alone

## CC(=O)Oc1ccccc1C(=O)O [aspirin]
Platelet aggregation
  arachidonic acid-induced platelet aggregation: abolished arachidonic acid-induced platelet aggregation
C57BL6/J mice [1]; [6]
  tail bleeding time, inhibitor in GCSF-treated (neutrophilia) mice: no different from vehicle/vehicle controls
  tail bleeding time, inhibitor in mice given vehicle for GCSF: longer bleeding times than mice treated with both vehicles
[3]; [7]
  effect of inhibitor on TRAP-induced aggregation in presence of vehicle-treated neutrophils: did not alter the pro-aggregatory effect of vehicle-treated neutrophils
[3]; Example 10, FIG. 12, aspirin 30 μM, C36H33N2O6P 500 nM, up to 20×10^3 neutrophils/μl
  TRAP-induced platelet aggregation with increasing neutrophil concentrations, vs DMSO vehicle: no significant difference between vehicle and aspirin-treated samples at any of the neutrophil concentrations

## IL-1β: pro-inflammatory cytokine interleukin 1-beta
[3]
  TRAP-induced platelet aggregation in presence of cytokine-treated neutrophils: did not modify the effect of PMN on platelet aggregation

## IL-6: inflammatory cytokine interleukin 6
[4]
  TRAP-induced platelet aggregation in presence of IL-6-treated lymphocytes: no significant effect on aggregation
  collagen-induced platelet aggregation in presence of IL-6-treated lymphocytes: no impact
C57BL6/J mice [2]; IL-6 100 ng/100 μl intramuscular on two consecutive days, vs vehicle
  shortening of time to formation of first thrombus (>10 μm): greater than 50%
Cathepsin G; IL-6 10 ng/ml 24 hours, cell lysates
  neutrophil expression of cathepsin G: increases neutrophil expression of cathepsin G
Cathepsin G; PMNs pre-treated with IL-6, supernatants of TRAP-stimulated aggregation samples
  neutrophil release of cathepsin G in presence of activated platelets: release is enhanced

## TNFα
[3]
  TRAP-induced platelet aggregation in presence of cytokine-treated neutrophils: did not modify the effect of PMN on platelet aggregation

B1: G-CSF: granulocyte colony stimulating factor; stimulates the bone marrow to produce neutrophils (protein, UniProt P09919 31-207, looked up)
Granulocyte …: TPLGPASSLPQSFLLKCLEQVRKIQGDGAALQEKLVSECATYKLCHPEELVLLGHSLGIPWAPLSSCPSQALQLAGCLSQLHSGLFLYQGLLQALEGISPELGPTLDTLQLDVADFATTIWQQMEELGMAPALQPTQGAMPAFASAFQRRAGGVLVASHLQSFLEVSYRVLRHLAQP
C57BL6/J mice [1]; Example 8, FIG. 10, G-CSF 1 μg daily for 3 days after CYP 50 mg/kg
  tail bleeding time in CYP-treated mice: restored bleeding time to baseline
[5]; Example 8, CYP/G-CSF group
  neutrophil counts in CYP-treated mice: 0.80±0.16 ×10^3/μl
[5]; Example 11, third treatment day, GCSF 1 μg SQ 3 days or vehicle
  number of blood neutrophils: 4.90±1.25 ×10^3/μl

From US9585899B2, “Method of inhibiting platelet aggregation and clot formation” (The Johns Hopkins University, priority 2007, dated 2017)
